Laboratory results as given in PubChem BioAssay AID540317 (National Center for Advancing Translational Sciences (NCATS), 2011).
The whole screen tested about 390,000 compounds, of which about 2,200 (0.56%) were called active. Inconclusive means that the source gave no clear call. Such entries were picked first, then a sample of the others. Calls come from the whole dose curve; as a rule, active = well fitted inhibition curve with a large enough effect; inconclusive = small, poorly fitted or top-dose-only effect; inactive = no such curve, though single readings can be large or run the other way. Potencies beside an inconclusive call are fits to weak or partial responses and may not hold up.

Molecular target: Chromobox protein homolog 1 (Homo sapiens) (UniProt P83916)
Experiment: HTS for Inhibitors of HP1-beta Chromodomain Interactions with Methylated Histone Tails; note: nearly all actives have a fitted effect of over 70% in size
Settings: AlphaScreen HP1-beta / biotin-H3K9me3 peptide binding; series mostly up to 114 µM; activity change, negative = inhibition: at the top concentration
Method in brief: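 Compound inhibition of the preformed complex between 50 nM HP1-beta and 50 nM biotinylated H3K9me3 peptide was read by AlphaScreen. Buffer was PBS pH 7.4 with 0.01% Tween-20. Incubations ran 30 min at room temperature, with 10 ug/mL donor/acceptor beads.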
Potency is the fitted concentration of half-maximal effect; tags give direction and shape of the fitted curve.

Chain of UniProt P83916 (P83916 whole entry, looked up): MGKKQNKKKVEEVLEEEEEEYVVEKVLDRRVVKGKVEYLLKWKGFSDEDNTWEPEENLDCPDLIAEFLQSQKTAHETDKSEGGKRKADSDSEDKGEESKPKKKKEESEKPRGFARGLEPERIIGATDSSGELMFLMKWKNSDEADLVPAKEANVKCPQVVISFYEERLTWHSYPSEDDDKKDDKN

Structure (SMILES)	Potency	activity change, negative = inhibition
O=C(CN1C(=O)N/C(=C\c2ccccc2OCc2ccc(C(=O)O)cc2)C1=O)Nc1ccccc1F	inconclusive: 89.1 µM [inhibitor, single point]	
CCn1ncc(S(=O)(=O)Nc2cccnc2)c1C		inactive: 24.3%
COC(=O)Nc1nnc(/C=C/c2ccccc2)s1	inconclusive: 100 µM [inhibitor, single point]	
Cc1cc(C)c2cc(C#N)c(SCC(=O)NCc3ccco3)nc2c1		inactive: 8.79%
O=C(Cn1c(=O)n(Cc2ccc(C(=O)NCc3ccc4c(c3)OCO4)cc2)c(=O)c2ccccc21)Nc1ccccc1F	inconclusive: 89.1 µM [inhibitor, single point]	
Cc1ccc(CSc2nc3ccncc3n2Cc2nc(-c3ccccc3C)oc2C)cc1		inactive: 4.41%
COc1ccc2c(c1)c1c(c(=O)n(-c3cccc(C)c3)c(=O)n1CC(=O)NCc1ccc(C)cc1)n2C		inactive: 46.3%
COc1cc(-c2nc3ccccn3c2/N=C/c2ccc(F)cc2)ccc1O	inconclusive: 50.1 µM [inhibitor, partial curve]	
COc1ccccc1-n1c(=S)[nH]c2c(sc(=S)n2-c2ccccc2C)c1=O	inconclusive: 31.6 µM [inhibitor, partial curve, poor fit]	
Cc1ccc(-c2nn(C)c(=O)c3ccccc23)cc1CN1CCOCC1	inconclusive: 25.1 µM [inhibitor, partial curve]	
COc1ccccc1NS(=O)(=O)c1ccc(NC(=O)Cc2cccs2)cc1	inconclusive: 3.55 µM [inhibitor, partial curve, poor fit]	
Cc1ccc(Nc2c(-c3ccc(C)o3)nc3cnccn23)cc1	inconclusive: 31.6 µM [inhibitor, partial curve]	
O=[N+]([O-])c1cccc(OCCN2CCC(Cc3ccccc3)CC2)c1	inconclusive: 28.2 µM [inhibitor, partial curve]	
O=C(Nc1ccccc1Cl)c1ccc(=O)[nH]n1		inactive: 32.1%
Cc1ccc(NC(=O)CSc2nccn2C2CCCC2)cc1Cl	inconclusive: 39.8 µM [inhibitor, partial curve]	
O=C(CSCc1cnn(-c2ccccc2)c1-n1cccc1)N1CCN(Cc2ccccc2)CC1		inactive: -15.1%
Brc1ccc(C2Nc3cccc4cccc(c34)N2)cc1	inconclusive: 15.8 µM [inhibitor, full curve]	
CC1(C)CC(=O)C(C(=O)/C=C/c2ccco2)C(=O)C1	inconclusive: 7.08 µM [inhibitor, full curve]	
COCCn1c(=O)[nH]c2cc(C(=O)N3CCN(c4cccc(C)c4C)CC3)ccc2c1=O		inactive: 27.1%
CC(=O)c1ccc(N2CCN(CC3CCCCC3)CC2)cc1	inconclusive: 70.8 µM [inhibitor, partial curve]	
COc1ccc(N2CCN(C(c3ccc(F)cc3)c3sc4nc(-c5ccco5)nn4c3O)CC2)cc1 (stereo not drawn)	inconclusive: 50.1 µM [inhibitor, partial curve]	
O=S(=O)(Nc1ccccc1F)c1cccc(NC(=S)NCCN2CCOCC2)c1	inconclusive: 12.6 µM [inhibitor, full curve]	

Structure (SMILES)	Potency	activity change, negative = inhibition
CN(C)S(=O)(=O)c1ccc(NC(=S)NC(=O)c2cccs2)cc1		inactive: 14.7%
Cc1ccc(N2C(=O)c3ccccc3C2C(=O)c2cc(C)ccc2O)cc1 (stereo not drawn)	inconclusive: 79.4 µM [inhibitor, partial curve]	
O=S(=O)(c1ccc(Cl)cc1)N1CCC(n2cccc2)CC1	inconclusive: 50.1 µM [inhibitor, partial curve, poor fit]	
C=CCOc1ccc(CN(C)CC(O)COc2ccc(CCC(C)=O)cc2)cc1 (stereo not drawn)	inconclusive: 56.2 µM [inhibitor, partial curve, poor fit]	
CCCOC(=O)C1=C(C)N(C)C(=O)NC1c1cc2c(cc1[N+](=O)[O-])OCO2 (stereo not drawn)		inactive: -0.866%
Cc1ccc(C2CC(=O)N3CN(Cc4ccco4)CSC3=C2C#N)cc1 (stereo not drawn)	inconclusive: 17.8 µM [inhibitor, partial curve, poor fit]	
CCOc1ccc(N=c2scc(-c3ccccc3)n2CCO)cc1	inconclusive: 39.8 µM [inhibitor, single point]	
CC(C)OC(=O)c1c(NC(=O)CCn2nnc3ccccc32)sc2c1CCCC2	inconclusive: 39.8 µM [inhibitor, single point]	
CN(C)CCOCCOc1ccc(Cl)c2ccccc12	inconclusive: 56.2 µM [inhibitor, partial curve, poor fit]	
COCCCNC(=O)c1ccc(Cn2c(=O)c3cccn3c3cccnc32)cc1		inactive: 30.3%
COc1ccc(N=Nc2c(C)n[nH]c2C)cc1	inconclusive: 79.4 µM [inhibitor, partial curve, poor fit]	
COc1ccccc1C=NN1C(=O)CSC1=S	inconclusive: 70.8 µM [inhibitor, partial curve]	
Cc1ccn2c(C(=O)CSc3ccccc3)c(C)nc2c1		inactive: 31.2%
CN=c1nc(-c2ccccc2)n(-c2ccccc2)s1	active: 7.08 µM	
Cc1c(NC(=O)c2n[nH]c(=O)c3ccccc23)c(=O)n(-c2ccccc2)n1C	inconclusive: 79.4 µM [inhibitor, partial curve, poor fit]	
Cn1cccc1-c1cc(C(=O)N/N=C/C=C/c2ccccc2)[nH]n1	inconclusive: 15.8 µM [inhibitor, partial curve, poor fit]	
Cc1cc(C(=O)O)ccc1-c1ccc(/C=C2\NC(=O)N(Cc3ccccc3Cl)C2=O)o1	inconclusive: 89.1 µM [inhibitor, single point]	
Cc1cc(C)c2sc(N(CCCN(C)C)C(=O)c3ccc(S(=O)(=O)N(C)Cc4ccccc4)cc3)nc2c1	inconclusive: 31.6 µM [inhibitor, partial curve]	
Cc1ccc(NC(=O)CN2C(=O)CC(c3ccc(C)c(C)c3)=Nc3ccccc32)cc1		inactive: 8.71%
CC1(c2ccccc2)NC(=O)N(Cc2ccc([N+](=O)[O-])cc2)C1=O (stereo not drawn)		inactive: 21.5%
O=C(Cc1ccccc1)Nc1cccc(N2C(=O)C=CC2=O)c1	inconclusive: 14.1 µM [inhibitor, partial curve, poor fit]	
